Here are results for 88 compounds from PubChem BioAssay AID463173 (ICCB-Longwood Screening Facility, Harvard Medical School, 2010).

Molecules are shown by their SMILES. The campaign covered roughly 52,000 compounds. About 4,300 (8.3%) were called active. Rule as the data show it: active = survival mostly below about 52% (no sharp cut-off); inactive = mostly above about 56%. Some of the results follow.

This assay has as its system DeltatarO mutant. As to the kind of experiment: S. aureus survival, RN4220 and DeltatarO strains – OD600, teichoic acid synthesis inhibitors, primary screen (AID 463173). To be noted: S. aureus RN4220 wild type/DeltatarO growth, OD600, 18 h, hits give low values, screened at 18.75 µg/mL (by protocol).
Turning to `Cc1ccc(-n2cc3c(c2-c2ccccc2Br)c(=O)n(C)c(=O)n3C)cc1N`, the survival was inactive: 76%. As for `CC(=O)Nc1c(O)c2ccccc2[nH]c1=O`, the survival is inactive: 77%. Consider `Cc1ccc(C(=O)NCC(=O)OCc2cc(=O)n3c(C)csc3n2)cc1`, for which the survival is inactive: 95%.

As to `CCc1cc2c(cc3c(=O)n(CC(=O)NC4CCCCC4)nc(CC)n32)s1`, the survival was inactive: 93%. For `Cc1cn(C)c(CC(=O)N2CCN(c3cccc(C(F)(F)F)c3)CC2)c1C(=O)O` the value was inactive: 126%; for `CCOC(=O)CCN(c1ccccc1)S(=O)(=O)c1cc(-c2cc(C)no2)ccc1C`, inactive: 84%; for `Cc1cc(C)c2oc(C(=O)Nc3c(C)n(C)n(-c4ccccc4)c3=O)cc(=O)c2c1`, inactive: 65%.

In the case of `O=C(NCC(c1cccnc1)N1CCc2ccccc21)c1ccc(F)c(F)c1` (stereo not drawn), the survival is inactive: 52%. Consider `CC(=O)N1CCc2c(sc3c2c(=O)n(-c2ccccc2C)c(=O)n3CC(=O)c2ccccc2)C1`, for which the survival is inactive: 112%.

`COc1ccccc1C(=O)Nc1c(C(=O)N2CCN(c3ccc(F)cc3)CC2)oc2ccccc12`: the survival is active: 0%. `COc1ccc(/C=N/O)cc1COc1ccc(NC(C)=O)cc1`: the survival was inactive: 70%. For `COc1ccc(-c2cc(-c3ccccc3)c(C#N)c(SCC(O)CS(=O)(=O)Cc3ccccc3)n2)cc1` (stereo not drawn) the value was inactive: 74%; for `Cc1ccc2cc(CN(Cc3cccs3)Cc3nnnn3C(C)(C)C)c3nnnn3c2c1`, inactive: 56%. `Cc1ccc2c(=O)cc(C(=O)N(Cc3ccccc3Cl)C3CCS(=O)(=O)C3)oc2c1` (stereo not drawn): the survival was inactive: 118%. With `COc1ccc(S(=O)(=O)N2CCN(C(c3ccc(OC)c(OC)c3)c3nnnn3C3CCCCC3)CC2)cc1` (stereo not drawn) the figure was inactive: 100%.

With `CC(O)CNC(=O)C(=O)Nc1c2c(nn1-c1ccc(Cl)cc1)CSC2` (stereo not drawn), the survival is inactive: 64%. As for `CCOc1ccc(CCNC(=O)CS(=O)(=O)Cc2nc(-c3cccc(Cl)c3)oc2C)cc1`, the survival was inactive: 72%. Turning to `COc1ccc(NC(=O)C2CCCN(C(=O)c3cnn(-c4ccccc4)c3-n3cccc3)C2)cc1` (stereo not drawn), the survival was inactive: 70%. Turning to `COc1ccc(-c2noc(C3CCCN(C(=O)c4ccccc4)C3)n2)cc1` (stereo not drawn), the survival is inactive: 94%. As for `COc1ccccc1-c1nc2c(c(SCC(=O)Nc3ccccc3F)n1)Cc1c(CO)cnc(C)c1O2`, the survival is inactive: 88%. Turning to `COc1ccccc1N1CCN(CCCNC(=O)c2nnc(Cc3c(F)cccc3Cl)o2)CC1`, the survival is inactive: 87%.

Take `O=S(=O)(NCCc1ccccc1)c1cccc(S(=O)(=O)N2CCOCC2)c1`: the survival was inactive: 80%.

As for `Cc1ccnc(N2CCC(C(=O)NCCC(C)C)CC2)n1`, the survival is inactive: 102%. For `Cc1ccc(NC(=O)C2CCCN2S(=O)(=O)c2cccc3cccnc23)cc1` (stereo not drawn) the value was inactive: 66%.

`Cc1cc(C)n2nc(CNS(=O)(=O)c3ccc(Cl)cc3)nc2n1`: the survival was inactive: 78%. On to `CC1CN(C(=O)N2CCC(C(=O)NC3CCCCCC3)CC2)c2cc(Cl)ccc2O1` (stereo not drawn), for which the survival is inactive: 61%.

As to `O=C(Cn1cc(SCc2cccc(Cl)c2)c2ccccc21)N1CCOCC1`, the survival was inactive: 79%. For `O=c1[nH]c(SCc2ccc(F)cc2)nc2c1CCCC2`, the survival is active: 63%. For the compound `COc1cc(C(=O)NC2CC(=O)N(c3cccc(F)c3)C2)cc(OC)c1OC` (stereo not drawn), the survival was inactive: 80%. With `CCOc1ccc(CNC(=O)c2cc3c(=O)n(C)c4ccccc4c3s2)cc1` the figure was inactive: 72%; with `NC1=NC(=O)CC(C(=O)Nc2ccccc2)S1` (stereo not drawn), inactive: 82%; with `O=C(c1ccc2c(c1)OCCO2)N(Cc1cccnc1)c1nc2ccc(F)cc2s1`, inactive: 73%. For `Cc1ccc(NC(=O)Cn2c(=O)n(Cc3ccco3)c(=O)c3ccccc32)cc1` the value was inactive: 78%; for `CCN(CC)CCCNC(=O)c1cc(-c2ccc(OC)c(OC)c2)on1`, inactive: 71%; for `COc1ccc2c(c1)NC(c1ccc(OCC(C)C)cc1)=NC(c1ccncc1)=N2`, inactive: 119%. As to `COc1ccc2c(c1)CC(C(=O)N1CCC(C(N)=O)CC1)CO2` (stereo not drawn), the survival was inactive: 89%. As to `COc1ccccc1N1CCN(C(=O)c2oc3ccccc3c2NC(=O)C(C)Oc2ccccc2)CC1` (stereo not drawn), the survival is inactive: 69%. For the compound `Cc1ccc(C(C)C)c(OCCn2cc(C(=O)c3ccco3)c3ccccc32)c1`, the survival is active: 35%. With `O=C(Nc1cc(Cl)cc(Cl)c1)c1ccc(F)c(S(=O)(=O)N2CCCCCC2)c1`, the survival is inactive: 124%.

In the case of `CCOc1ccc(-c2n[nH]c3c2C(c2ccccc2OC)N(c2ccc(Br)cc2)C3=O)cc1` (stereo not drawn), the survival is inactive: 69%. With `COc1ccc(NC(=O)c2ccco2)cc1NC(=O)COc1cc(C)cc(C)c1`, the survival was inactive: 121%. `CCC(=O)N1CCc2cc(Br)cc(S(=O)(=O)N3CCN(c4ccccc4)CC3)c21`: the survival was inactive: 73%. In the case of `CCc1nnc2c(NCc3ccc(F)cc3)nc3ccccc3n12`, the survival was inactive: 127%. `O=c1/c(=C/c2ccc(Br)cc2)sc2nncn12`: the survival was inactive: 95%.

For the compound `CCn1c(SCCN2CCCC2)nnc1C1CCCN(S(C)(=O)=O)C1` (stereo not drawn), the survival is inactive: 92%. In the case of `COc1ccc(CNC(=O)C2CCCN(S(=O)(=O)c3ccc4c(c3)CCCN4C(C)=O)C2)cc1` (stereo not drawn), the survival is inactive: 78%. On to `CCOc1ccc2nc(N3CCCC(C(=O)Nc4ccc(Br)c(C)c4)C3)sc2c1` (stereo not drawn), for which the survival is inactive: 75%. As to `CCOC(=O)c1c(C)oc2ncnc(NCCc3ccccc3)c12`, the survival is inactive: 78%. As to `CCc1ccc(N2CCn3c2nc2c3c(=O)n(Cc3cccc(C)c3)c(=O)n2C)cc1`, the survival is inactive: 76%. For the compound `COc1ccc(C2c3c(n(C)c4ccccc34)C(=O)N2CC(=O)Nc2ccc(Cl)cc2)cc1` (stereo not drawn), the survival is inactive: 62%. With `COc1cc2nc(SCC(=O)Nc3ccc(F)cc3)n3nc(CCn4c(C)nc5ccccc54)nc3c2cc1OC` the figure was inactive: 103%. As for `Cc1ccc(OC(=O)c2snnc2C)cc1C`, the survival was inactive: 112%.

Consider `CCCN1CCN(CCNC(=O)Nc2cc(OC)cc(OC)c2)CC1`, for which the survival is inactive: 88%.

On to `Cc1ccc(NC(=O)C(=O)NCC(c2ccc3c(c2)OCO3)N2CCOCC2)c(C)c1` (stereo not drawn), for which the survival was inactive: 79%. Consider `O=C(CSc1ncc2c(n1)-c1ccccc1N(Cc1ccc(F)cc1)S2(=O)=O)c1ccc(Br)cc1`, for which the survival was inactive: 65%. Turning to `COc1cc2c(=O)n(Cc3ccccc3)c(=O)n(CC(=O)Nc3cc(C(F)(F)F)ccc3Cl)c2cc1OC`, the survival is inactive: 151%. With `O=C(Cn1cccc1C(=O)c1ccccc1)NCc1ccc(F)cc1`, the survival is inactive: 97%. With `CN1C(C(=O)Nc2ccc(OC(F)(F)F)cc2)=CC(c2ccc3c(c2)OCO3)=NS1(=O)=O` the figure was inactive: 80%; with `CC(C)c1cc(N)cc(C(C)C)c1O`, inactive: 84%; with `COC(=O)c1cc2oc(C)cc2n1Cc1c(C)cc(C)cc1C`, inactive: 46%. As to `CCN(CC)c1ccc(NS(=O)(=O)c2ccc3c(c2)CCCN3C(C)=O)c(C)c1`, the survival is inactive: 79%. For `COc1ccccc1NC(=O)CN(c1ccc(C(C)C)cc1)S(=O)(=O)c1c(C)noc1C`, the survival was inactive: 78%. On to `N#Cc1ccc(C(=O)N2CCN(c3nc4ccc(F)cc4s3)CC2)cc1`, for which the survival is inactive: 72%. In the case of `O=C(NC1CCCCC1)c1ccc2c(c1)sc1nc(-c3ccccc3)cn12`, the survival was inactive: 69%.

For `CCN(CC)CCN(C(=O)c1ccco1)c1nc2c(C)cccc2s1`, the survival is inactive: 77%. `COc1cc2c(cc1OC)C(c1ccc(Cl)cc1)N(c1ccc(C)c(F)c1)C(=O)C2` (stereo not drawn): the survival was active: 42%. With `COc1ccc(-c2oc3ncn4nc(-c5ccc(Cl)cc5)nc4c3c2-c2ccc(OC)cc2)cc1` the figure was inactive: 74%; with `CC(C)c1ccc(OCc2cc(=O)n3c4c(sc3n2)CCCC4)cc1`, inactive: 73%; with `Cc1cccc(NC(=O)CSc2nc3ccc(NC(=O)c4cccs4)cc3s2)c1`, inactive: 65%.

For the compound `COc1ccc(OCC(=O)Nc2cc(-c3cccc(Cl)c3)nn2-c2ccccc2)cc1`, the survival was inactive: 83%. As to `O=C(CSc1nc(-c2ccccc2)cc(=O)[nH]1)c1ccccc1`, the survival was inactive: 94%. Take `COC(=O)c1ccccc1NC(=O)CSc1nnnn1-c1ccc2c(c1)OCO2`: the survival is inactive: 91%.

Turning to `Cc1ccc(NC(=O)Cn2c(-c3ccc4c(c3)OCO4)cn(-c3ccccc3)c2=O)cc1`, the survival was inactive: 68%. As to `COc1ccc(-c2c3c(=O)n(C)c(=O)n(C)c3c3c(-c4ccc(C)cc4)nc4ccccc4n23)cc1`, the survival is inactive: 82%. With `CCCCCNC(=O)C(=O)NCC(c1ccc2c(c1)OCO2)N1CCOCC1` (stereo not drawn) the figure was inactive: 72%; with `CCC(C(=O)Nc1cccc(C#N)c1)n1c(=O)c(-c2ccccc2NC(C)=O)nc2ccccc21` (stereo not drawn), inactive: 100%; with `Cc1ccc(CSc2nc(=O)c3c(n2C)NC(=O)CC3c2ccc(OC(C)C)cc2)cc1` (stereo not drawn), inactive: 50%.

Regarding `CCN1CCC(N(Cc2cccc(OC)c2)C(=O)Nc2ccc(C)cc2Cl)CC1`, the survival is inactive: 66%.

Consider `Cc1ccc(S(=O)(=O)Nc2cc3c(cc2N2CCOCC2)n(C)c(=O)n3C)c(C)c1`, for which the survival was inactive: 84%. As to `Cc1ccc(Nc2nc(C(=O)NCc3ccco3)cs2)cc1`, the survival was inactive: 93%. Regarding `Cc1nnc(NC(=O)CCCN2C(=O)/C(=C/c3cccs3)SC2=S)s1`, the survival is inactive: 55%. `Cc1ccc2oc(=O)c3cc(C(=O)N(Cc4ccccc4)C(C)C)sc3c2c1`: the survival is inactive: 87%. For `COc1ccc(CNC(=O)CC2N=C3c4ccccc4N=C(SCC(=O)Nc4ccc(N(C)C)cc4)N3C2=O)cc1` (stereo not drawn) the value was inactive: 82%; for `Cc1ccc(CN2c3ccccc3S(=O)(=O)c3ccccc32)cc1`, inactive: 83%. Turning to `COc1cc(CN(C(=O)COc2ccc(C)c(C)c2)c2ccccn2)cc(OC)c1OC`, the survival was inactive: 71%. In the case of `COc1ccc(NC(=O)CN(Cc2ccccc2)S(=O)(=O)c2ccc3nc(C)sc3c2)cc1`, the survival was inactive: 83%. Take `CCCN(CCC)CCNC(=O)c1cc2c(-c3ccccc3F)nn(C)c2s1`: the survival was inactive: 107%.

Consider `CCN(CC)C(=O)CSc1nnc2c(n1)[nH]c1ccc(C(C)C)cc12`, for which the survival is inactive: 116%.
